The list shows a part of the results.
Molecular target: T1, MBP-FoxP1dN (Mus musculus, UniProt P58462 326-579)
T1 sequence: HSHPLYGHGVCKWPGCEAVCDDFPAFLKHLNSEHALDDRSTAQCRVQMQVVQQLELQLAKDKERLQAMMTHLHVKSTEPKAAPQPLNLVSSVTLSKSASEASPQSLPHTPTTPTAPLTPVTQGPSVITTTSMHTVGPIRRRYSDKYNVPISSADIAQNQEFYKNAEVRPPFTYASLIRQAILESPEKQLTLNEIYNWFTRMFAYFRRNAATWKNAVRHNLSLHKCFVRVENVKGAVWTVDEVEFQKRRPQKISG
Assay: PD-seq (MBP pull-down with sequencing); 20 mM Tris-HCl pH 7.5, 100 mM NaCl, 1.5 mM MgCl2, 0.4 uM protein, 0.1 uM dsDNA library, 30 min, room temperature, amylose pull-down; high values mean tight binding
Settings: protein: recombinant; tags: His6-MBP; chain copies: 2; dsDNA, one strand shown
Method in brief: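 In Tris pH 7.5 buffer with NaCl and MgCl2, 0.4 µM His6-MBP-tagged mouse FoxP3 or FoxP1 fragment lacking the N-terminus, from E. coli, met 0.1 µM Klenow-filled double-stranded degenerate DNA library for 30 min at room temperature. Three washes on amylose resin followed capture of the complexes, then proteinase K release of DNA, PCR barcoding and Illumina sequencing. Binding is taken as pooled-replicate reads-per-million enrichment of pull-down relative to input.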

First: GATGATTGTTCTCCCAGCTGATGAATTAGATAATTCGAGTAAACAAATTTTCCTAATCTTTCTGTTCAAGCGCCATCTAC
Second: GATGATTGTTCTCCCAGCTGATGAATTGGTTTGATCGAGTAAACAAATTTTCCTAATCTTTCTGTTCAAGCGCCATCTAC
The binding signal of the first is higher: 1.04 RPM ratio (pull-down/input) for the first, 0.97 RPM ratio (pull-down/input) for the second.

First: GATGATTGTTCTCCCAGCTGATGAATTGCTGAAATCGAGTAAACAAATTTTCCTAATCTTTCTGTTCAAGCGCCATCTAC
Second: GATGATTGTTCTCCCAGCTGATGAATTTGGTATATCGAGTAAACAAATTTTCCTAATCTTTCTGTTCAAGCGCCATCTAC
The binding signal of the first is lower: 1.1 RPM ratio (pull-down/input) for the first, 1.23 RPM ratio (pull-down/input) for the second.

Going from “GATGATTGTTCTCCCAGCTGATGAATTACGGCATTCGAGTAAACAAATTTTCCTAATCTTTCTGTTCAAGCGCCATCTAC” to “GATGATTGTTCTCCCAGCTGATGAATTAGAGTTTTCGAGTAAACAAATTTTCCTAATCTTTCTGTTCAAGCGCCATCTAC”, the binding signal falls from 1.15 RPM ratio (pull-down/input) to 1.11 RPM ratio (pull-down/input).

First: GATGATTGTTCTCCCAGCTGATGAATTCATATGGTCGAGTAAACAAATTTTCCTAATCTTTCTGTTCAAGCGCCATCTAC
Second: GATGATTGTTCTCCCAGCTGATGAATTAAGTCGTTCGAGTAAACAAATTTTCCTAATCTTTCTGTTCAAGCGCCATCTAC
The binding signal of the first is lower: 0.907 RPM ratio (pull-down/input) for the first, 0.923 RPM ratio (pull-down/input) for the second.

Compared with “GATGATTGTTCTCCCAGCTGATGAATTGTTGCAATCGAGTAAACAAATTTTCCTAATCTTTCTGTTCAAGCGCCATCTAC”, “GATGATTGTTCTCCCAGCTGATGAATTATCCGTTTCGAGTAAACAAATTTTCCTAATCTTTCTGTTCAAGCGCCATCTAC” is lower in binding signal: 1.87 RPM ratio (pull-down/input) for the first, 0.979 RPM ratio (pull-down/input) for the second.

First: GATGATTGTTCTCCCAGCTGATGAATTTTCGCATTCGAGTAAACAAATTTTCCTAATCTTTCTGTTCAAGCGCCATCTAC
Second: GATGATTGTTCTCCCAGCTGATGAATTAGATGCGTCGAGTAAACAAATTTTCCTAATCTTTCTGTTCAAGCGCCATCTAC
The binding signal of the first is lower: 1.32 RPM ratio (pull-down/input) for the first, 1.47 RPM ratio (pull-down/input) for the second.

First: GATGATTGTTCTCCCAGCTGATGAATTGTCTAGTTCGAGTAAACAAATTTTCCTAATCTTTCTGTTCAAGCGCCATCTAC
Second: GATGATTGTTCTCCCAGCTGATGAATTGTCGCCCTCGAGTAAACAAATTTTCCTAATCTTTCTGTTCAAGCGCCATCTAC
The binding signal of the first is higher: 1.06 RPM ratio (pull-down/input) for the first, 0.934 RPM ratio (pull-down/input) for the second.

Compared with “GATGATTGTTCTCCCAGCTGATGAATTACCCTGGTCGAGTAAACAAATTTTCCTAATCTTTCTGTTCAAGCGCCATCTAC”, “GATGATTGTTCTCCCAGCTGATGAATTGGTCTTATCGAGTAAACAAATTTTCCTAATCTTTCTGTTCAAGCGCCATCTAC” is higher in binding signal: 0.836 RPM ratio (pull-down/input) for the first, 0.982 RPM ratio (pull-down/input) for the second.

Compared with “GATGATTGTTCTCCCAGCTGATGAATTCCCTGTCTCGAGTAAACAAATTTTCCTAATCTTTCTGTTCAAGCGCCATCTAC”, “GATGATTGTTCTCCCAGCTGATGAATTCGCCGATTCGAGTAAACAAATTTTCCTAATCTTTCTGTTCAAGCGCCATCTAC” is higher in binding signal: 0.738 RPM ratio (pull-down/input) for the first, 0.86 RPM ratio (pull-down/input) for the second.

Compared with “GATGATTGTTCTCCCAGCTGATGAATTGCTACTGTCGAGTAAACAAATTTTCCTAATCTTTCTGTTCAAGCGCCATCTAC”, “GATGATTGTTCTCCCAGCTGATGAATTGGTCGTCTCGAGTAAACAAATTTTCCTAATCTTTCTGTTCAAGCGCCATCTAC” is lower in binding signal: 1.11 RPM ratio (pull-down/input) for the first, 0.797 RPM ratio (pull-down/input) for the second.

Going from “GATGATTGTTCTCCCAGCTGATGAATTCCCTGCCTCGAGTAAACAAATTTTCCTAATCTTTCTGTTCAAGCGCCATCTAC” to “GATGATTGTTCTCCCAGCTGATGAATTACAGATATCGAGTAAACAAATTTTCCTAATCTTTCTGTTCAAGCGCCATCTAC”, the binding signal rises from 0.856 RPM ratio (pull-down/input) to 1.15 RPM ratio (pull-down/input).

First: GATGATTGTTCTCCCAGCTGATGAATTGCACGCCTCGAGTAAACAAATTTTCCTAATCTTTCTGTTCAAGCGCCATCTAC
Second: GATGATTGTTCTCCCAGCTGATGAATTCCCTAACTCGAGTAAACAAATTTTCCTAATCTTTCTGTTCAAGCGCCATCTAC
The binding signal of the first is higher: 1.17 RPM ratio (pull-down/input) for the first, 0.857 RPM ratio (pull-down/input) for the second.

Compared with “GATGATTGTTCTCCCAGCTGATGAATTAGTGGTATCGAGTAAACAAATTTTCCTAATCTTTCTGTTCAAGCGCCATCTAC”, “GATGATTGTTCTCCCAGCTGATGAATTGCATGAATCGAGTAAACAAATTTTCCTAATCTTTCTGTTCAAGCGCCATCTAC” is higher in binding signal: 1.06 RPM ratio (pull-down/input) for the first, 1.15 RPM ratio (pull-down/input) for the second.

First: GATGATTGTTCTCCCAGCTGATGAATTGACGTGCTCGAGTAAACAAATTTTCCTAATCTTTCTGTTCAAGCGCCATCTAC
Second: GATGATTGTTCTCCCAGCTGATGAATTCCCGATTTCGAGTAAACAAATTTTCCTAATCTTTCTGTTCAAGCGCCATCTAC
The binding signal of the first is higher: 1.12 RPM ratio (pull-down/input) for the first, 0.844 RPM ratio (pull-down/input) for the second.

First: GATGATTGTTCTCCCAGCTGATGAATTGATCATTTCGAGTAAACAAATTTTCCTAATCTTTCTGTTCAAGCGCCATCTAC
Second: GATGATTGTTCTCCCAGCTGATGAATTACTCCTTTCGAGTAAACAAATTTTCCTAATCTTTCTGTTCAAGCGCCATCTAC
The binding signal of the first is lower: 1.08 RPM ratio (pull-down/input) for the first, 1.15 RPM ratio (pull-down/input) for the second.

Compared with “GATGATTGTTCTCCCAGCTGATGAATTCTGCGAGTCGAGTAAACAAATTTTCCTAATCTTTCTGTTCAAGCGCCATCTAC”, “GATGATTGTTCTCCCAGCTGATGAATTAGCTCGCTCGAGTAAACAAATTTTCCTAATCTTTCTGTTCAAGCGCCATCTAC” is lower in binding signal: 0.898 RPM ratio (pull-down/input) for the first, 0.846 RPM ratio (pull-down/input) for the second.

From publication PMC12820563, “FoxP3 forms a head-to-head dimer in vivo and stabilizes its multimerization on adjacent microsatellites”
